This note sets out measurements from the RNAGym collection of RNA variant scans (doi:10.1101/gad.245936.114).

Variants at the floor of the assay are shown more often than the library holds them.

The chains are these.
B1: tRNA (parent)
chain: CUCUCGGUAGCCAAGUUGGUUUAAGGCGCAAGACUUUAAUUUAUCACUACGAAAUCUUGAGAUCGGGCGUUCGACUCGCCCCCGGGAGAUUUUUUCCUCGAGCAA

This data set covers variants of B1. Nature of the data set: nonsense suppression (GFP-seq) (ratio to wild type); higher = more function; SUP4oc tRNA, yeast GFP reporter sort-seq. In outline: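 Nonsense suppression (GFPSEQ) is the median GFP/RFP ratio of each sorting bin, weighted by the variant's estimated share of cells in that bin and expressed relative to the unmutated parent tRNA. Yeast strains carried genome-integrated variants of an ochre-suppressor tRNA from a library with ~3% random mutations, plus a galactose-driven GFP ochre reporter and RFP, and were grown in raffinose/galactose medium containing 80 mg/L adenine. Cells were sorted into GFP/RFP bins, each bin was Illumina-sequenced (phred ≥30), and variants were kept only with ≥100 reads and ≥30 cells.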
U35C G65A: the nonsense suppression was no more than 0.026.

Consider G10U C34G G65C U76G, for which the nonsense suppression was no more than 0.026.

Take C56G G88C: the nonsense suppression is no more than 0.026.

Regarding G10U A13C U21A C83U, the nonsense suppression is no more than 0.026.

A13C U17C G26C A31U U71A C77G: the nonsense suppression is no more than 0.026.

Regarding G10A C12A U71G U76A, the nonsense suppression was no more than 0.026.

Turning to A31U C56A, the nonsense suppression is no more than 0.026.

For the variant C77U G85A, the nonsense suppression is no more than 0.026.

On to A62G C80U C81G, for which the nonsense suppression was no more than 0.026.

Turning to U4A C11G A74G, the nonsense suppression was no more than 0.026.

For C77A G78U, the nonsense suppression is no more than 0.026.

On to A14C G18A G28U G88C, for which the nonsense suppression is no more than 0.026.

For the variant U22C A31C G32U C79G, the nonsense suppression is no more than 0.026.

Consider A23U C75A G84A, for which the nonsense suppression was no more than 0.026.

In the case of C3U U17G G18U G25C A31G, the nonsense suppression is no more than 0.026.

As to C64G C79G C81A, the nonsense suppression is no more than 0.026.

Consider C3A C29A U70G, for which the nonsense suppression is no more than 0.026.

C81U: the nonsense suppression turned out to be 1.16.

As for G6A C29G A62C C75G, the nonsense suppression was no more than 0.026.

With C1G A14G G66A A74G A89U, the nonsense suppression was no more than 0.026.

On to C3G G7C G26U, for which the nonsense suppression is no more than 0.026.

In the case of U20C C82G, the nonsense suppression was no more than 0.026.

As to C34U G67A C68U G78A, the nonsense suppression is no more than 0.026.

For the variant A31G A60G G69A, the nonsense suppression is no more than 0.026.

Regarding U2C U8A C29G U70C C82G, the nonsense suppression is no more than 0.026.

For C5G C29G G67U, the nonsense suppression was no more than 0.026.

Consider A54C U76C A87U, for which the nonsense suppression is no more than 0.026.

With G32C A74G, the nonsense suppression is no more than 0.026.

Regarding U8C U57A G86A, the nonsense suppression is no more than 0.026.

For the variant U22C A24G G25U G28U A30U A33U, the nonsense suppression is no more than 0.026.

With G25C U63A G69C, the nonsense suppression is no more than 0.026.

Turning to A9G U35A A60U G66A C83U, the nonsense suppression was no more than 0.026.

A14U U58G G59A G73A: the nonsense suppression is no more than 0.026.

Take G6C A13G C77G: the nonsense suppression was no more than 0.026.

With A9G C12U G61C U63C G88C, the nonsense suppression was no more than 0.026.

With C27G G28U G78U, the nonsense suppression was no more than 0.026.

Consider C34A U58A C77A, for which the nonsense suppression is no more than 0.026.

Turning to A14G C29A G73A, the nonsense suppression was no more than 0.026.

Take G19A C80U: the nonsense suppression is no more than 0.026.

Regarding C5A A62C, the nonsense suppression was no more than 0.026.

For G6U U70G A89U, the nonsense suppression is no more than 0.026.

Consider U4C C29G C34A C75G, for which the nonsense suppression is no more than 0.026.

Take C34G C82U: the nonsense suppression is no more than 0.026.

As for G10C U57C G86U, the nonsense suppression is no more than 0.026.

As to U8A A14U U20A A74C, the nonsense suppression was no more than 0.026.

With U8G A13U U70G G86A, the nonsense suppression was no more than 0.026.

As for A9G A14G U21C C68G G73A C83U, the nonsense suppression was no more than 0.026.

In the case of C1G U57A U58G G84U, the nonsense suppression was no more than 0.026.

For the variant U17G U21G, the nonsense suppression was determined as 0.717.

Regarding G32C C56A A87U, the nonsense suppression is no more than 0.026.

Regarding U20C A33U C72U C79G A87G, the nonsense suppression is no more than 0.026.

Regarding A9G A13C, the nonsense suppression was 0.183.

In the case of C5A G26U U35G A54C G65A, the nonsense suppression is no more than 0.026.

As to C34U C79A, the nonsense suppression is no more than 0.026.

Consider G28A G66C A87U, for which the nonsense suppression is no more than 0.026.

Turning to A14C C34U U35C, the nonsense suppression is no more than 0.026.

Consider U2A C12U U20G G28C C80A, for which the nonsense suppression is no more than 0.026.

On to U58G G88U, for which the nonsense suppression was no more than 0.026.

With U2G C34A U57C, the nonsense suppression is no more than 0.026.

Take U4A A13C U70C C82U: the nonsense suppression is no more than 0.026.

Consider G15A C56A, for which the nonsense suppression was no more than 0.026.

Regarding U57A G65A A87C, the nonsense suppression was no more than 0.026.

C5A U58C: the nonsense suppression is no more than 0.026.

In the case of U8C G32A C83G G84A, the nonsense suppression was no more than 0.026.

For the variant G7U U55A C68G, the nonsense suppression was no more than 0.026.

Take G66U C72A G85C: the nonsense suppression was no more than 0.026.

U4G G19A A23C A30G A62U: the nonsense suppression is no more than 0.026.

U22C U58A C75G: the nonsense suppression is no more than 0.026.

G6C C77U: the nonsense suppression is no more than 0.026.

As to U8C A33U, the nonsense suppression was no more than 0.026.

On to G19C G59U G85C, for which the nonsense suppression was no more than 0.026.

For G6U A30U C64A G66C, the nonsense suppression was no more than 0.026.

Take C1U C5A C83A: the nonsense suppression is no more than 0.026.

With U57A G85U, the nonsense suppression was 0.0736.

With A9C U63G, the nonsense suppression worked out at 0.0362.

Regarding A9C U21C A30C, the nonsense suppression was no more than 0.026.

Regarding C11A C80U C81A, the nonsense suppression is no more than 0.026.

As to G10U U16C U55C, the nonsense suppression was no more than 0.026.

For A33G U76A, the nonsense suppression is no more than 0.026.

With G19C G59A G61U G69U A89G, the nonsense suppression was no more than 0.026.

As for C27G C34G G65U A89G, the nonsense suppression was no more than 0.026.

For C27U G69U, the nonsense suppression was no more than 0.026.

On to G19C U76G G86C, for which the nonsense suppression was no more than 0.026.

In the case of G7U C82G, the nonsense suppression is no more than 0.026.
